# Data from PubChem BioAssay AID504466 (National Center for Advancing Translational Sciences (NCATS), 2011).
# About 4,200 (1.3%) of roughly 330,000 compounds were called active. This list was built around the results that the source calls inconclusive (neither active nor inactive); the mix of calls is not that of the screen. Calls come from the whole dose curve; as a rule, active = well fitted activation curve with a large enough effect; inconclusive = small, poorly fitted or top-dose-only effect; inactive = no such curve, though single readings can be large or run the other way. A potency beside an inconclusive call is a rough fit, not a confirmed value.
# Experiment: qHTS screen for small molecules that induce genotoxicity in human embryonic kidney (HEK293T) cells expressing luciferase-tagged ELG1; note: nearly all actives have a fitted effect of over 60% in size
# Conditions: HEK293T ELG1-luciferase reporter, luminescence, 16 h; series mostly up to 46 µM
# Method in brief: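 HEK293T cells expressing luciferase-tagged ELG1 were treated with compound or DMSO for 16 hr at 37°C. Luciferase activity was then read after 30 min with ONE-Glo at room temperature; rising signal flags genetic stress.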
# Potency is the fitted concentration of half-maximal effect; tags give direction and shape of the fitted curve.
row,SMILES,Potency
1,CNc1nc2c3ccccc3n(C(C)=O)c2s1,"inconclusive: 32.6 µM [activator, partial curve, poor fit]"
2,C[C@H](CO)N1C[C@H](C)[C@@H](CN(C)S(C)(=O)=O)Oc2ccc(NC(=O)C3CC3)cc2C1=O,inactive
3,Cc1ccc(-c2oc3ccccc3c(=O)c2O)cc1,active: 23.1 µM
4,COc1ccc(/C(N)=N/OC(=O)c2ccc(C)c([N+](=O)[O-])c2)cc1,"inconclusive: 16.4 µM [activator, single point]"
5,CC(C)N(Cc1nc(-c2ccccc2)no1)C(=O)c1ccc(Cl)cc1,inactive
6,Cc1ccc(-c2nnn(CCOc3cccc(Br)c3)n2)cc1,inactive
7,N=C(N)SCc1nc2ccccc2c(=O)n1-c1ccccc1,"inconclusive: 25.9 µM [activator, partial curve, poor fit]"
8,CC1(C)CC(=O)C(N=Nc2ccc(OC(F)F)cc2)=C(O)C1,"inconclusive: 23.1 µM [activator, partial curve, poor fit]"
9,O=C(NCc1ccc(Cl)cc1)c1cnn2ccccc12,"inconclusive: 2.31 µM [activator, partial curve]"
10,O=C(Nc1nc(=O)c2ccccc2s1)c1ccc(Cl)cc1,active: 1.84 µM
11,Cc1ccc2cc(C#N)c(NCCNC(=O)C3CC3)nc2c1C,inactive
12,O=S(=O)(Nc1ccc(-c2nc3cccnc3s2)cc1)c1cccs1,"inconclusive: 13 µM [activator, partial curve]"
13,Cn1cc(/C=N/NC(=O)c2cccc([N+](=O)[O-])c2)c2ccccc21,"inconclusive: 25.9 µM [activator, partial curve, poor fit]"
14,O=C(N/N=C/c1cccs1)c1n[nH]c2c1CCC2,"inconclusive: 1.64 µM [activator, full curve]"
15,Cc1nc(-c2ccc3c(c2)CCC(=O)N3)cs1,"inconclusive: 18.3 µM [activator, single point]"
16,O=C(CSc1ccc2ccccc2n1)NC1CC1,"inconclusive: 16.4 µM [activator, partial curve, poor fit]"
17,N=c1c2c(n(Cc3ccc(Cl)cc3)c3c1CCC3)CCC2,inactive
18,CCOC(=O)Cn1nnnc1C,"inconclusive: 10.3 µM [activator, single point]"
19,O=C(Cc1ccccc1)Nc1ccc(NC(=O)c2ccco2)nc1,"inconclusive: 6.51 µM [activator, partial curve, poor fit]"
20,Cc1oc2cc3oc(=O)cc(C)c3cc2c1C,"inconclusive: 20.6 µM [activator, single point]"
21,O=C(Nc1ccccc1C(=O)N/N=C/c1ccncc1)c1ccccc1,inactive
22,COc1ccc(OCc2cc(C(=O)N(C)CCC3CCOCC3)no2)c(Cl)c1,"inconclusive: 6.51 µM [activator, partial curve, poor fit]"
23,CN(C)c1nc2c(c(=O)[nH]c(=O)n2C)n1Cc1ccc(F)cc1,"inconclusive: 18.4 µM [activator, partial curve, poor fit]"
24,CNc1ccc(/C=C/C(=O)c2ccc(C)cc2)cc1[N+](=O)[O-],"inconclusive: 25.9 µM [activator, partial curve, poor fit]"

row,SMILES,Potency
1,COC(=O)c1c(C)[nH]c(C(=O)CSc2ncnc3sc(-c4ccccc4)cc23)c1C,"inconclusive: 32.6 µM [activator, partial curve, poor fit]"
2,CCOC(=O)c1cnc2c(ccc3ccccc32)c1Cl,"inconclusive: 20.6 µM [activator, partial curve, poor fit]"
3,Cc1ccc(-c2cc(C)nc3nc(N)nn23)cc1,"inconclusive: 25.9 µM [activator, single point]"
4,CN(C)c1ccc(/C=N/N=C/c2ccccc2O)cc1,"inconclusive: 0.651 µM [activator, partial curve, poor fit]"
5,COc1cccc(C(=O)Nc2nnc(SCC(=O)Nc3ccc(NC(C)=O)cc3)s2)c1,"inconclusive: 2.91 µM [activator, partial curve, poor fit]"
6,Cc1cccn2cc(-c3cc4ccccc4oc3=O)nc12,active: 0.82 µM
7,CC(C)c1ccc(N=C2N=C(N)c3ccccc32)cc1,"inconclusive: 7.3 µM [activator, partial curve, poor fit]"
8,C[C@H]1COC(=O)[C@@H](Cc2ccc(F)cc2)C/C=C\C[C@@H](CC(=O)N[C@@H](CO)Cc2ccccc2)C(=O)N1,inactive
9,CC(=O)Nc1cccc(/C(C)=N/Nc2nc3ccccc3s2)c1,"inconclusive: 4.61 µM [activator, partial curve, poor fit]"
10,O=C1/C(=C/c2ccccc2)CCC1C1CCCC1 (stereo not given),"inconclusive: 23.1 µM [activator, partial curve, poor fit]"
11,CC(C)NC(=O)c1ccc2c3n(nc2c1)-c1ccc(Cl)cc1CO3,"inconclusive: 1.46 µM [activator, full curve, poor fit]"
12,CCCc1cc(C(=O)NC(C)C2CCCO2)cs1 (stereo not given),"inconclusive: 23.1 µM [activator, partial curve, poor fit]"
13,O=C(CCc1nc2ccccc2c(=O)[nH]1)N1CCCc2ccccc21,"inconclusive: 25.9 µM [activator, partial curve, poor fit]"
14,Cn1/c(=N/NC(=O)c2ccccc2F)sc2ccccc21,"inconclusive: 20.6 µM [activator, single point]"
15,Cc1nc2ccccc2c2oc(C(=O)N3CCC(C)CC3)cc12,inactive
16,Cc1sc2c(c1C)C(=O)NC(c1ccccc1F)N2 (stereo not given),"inconclusive: 20.6 µM [activator, single point]"
17,CC1(C)c2ccccc2N2CC(=O)N(CC(N)=O)C21C (stereo not given),inactive
18,Cc1ccc(S(=O)(=O)c2c(C)cc(-c3ccccc3)[nH]c2=O)cc1,inactive
19,COc1ccc(NC(=S)/N=C(\N)Nc2nc(C)c3ccccc3n2)cc1,inactive
20,O=C(OCc1nc2ccccc2s1)C1CCN(C2=NS(=O)(=O)c3ccccc32)CC1,"inconclusive: 18.4 µM [activator, partial curve, poor fit]"
21,CCC1=Nc2ccccc2NC2=C1C(=O)CCC2,"inconclusive: 8.2 µM [activator, partial curve]"
22,COc1ccc(-n2cnc3cc(C(=O)NCCN4CCOCC4)ccc32)cc1,"inconclusive: 16.4 µM [activator, partial curve, poor fit]"
23,CCn1c(SC)nnc1-c1sc2cc(Cl)ccc2c1Cl,"inconclusive: 32.6 µM [activator, partial curve, poor fit]"
24,CC(C)CC(NC(=O)C1CCC(C)CC1)C(=O)Nc1ccc2c(c1)OCCO2 (stereo not given),"inconclusive: 16.4 µM [activator, single point]"

row,SMILES,Potency
1,Clc1ccc(OCc2nc(-c3ccncc3)no2)cc1,"inconclusive: 18.4 µM [activator, single point]"
2,Cc1ccc(Nc2nc(N)nc(CSc3nnc(-c4ccncc4)o3)n2)cc1,inactive
3,Cc1ccc(C(=O)NN2CC(O)=C(c3nc(-c4cccc([N+](=O)[O-])c4)cs3)C2=N)cc1,"inconclusive: 23.1 µM [activator, single point]"
4,CCc1ccc(C(=O)/C=C/c2cnn(C)c2C)s1,active: 13 µM
5,COc1ccc(Cl)cc1C(=O)NNC(=O)CNC(=O)c1ccc(C)s1,inactive
6,CCOc1ccc(-c2cc(C(=O)OC)[nH]n2)cc1,"inconclusive: 8.2 µM [activator, partial curve]"
7,Cc1ccc(S(=O)(=O)NC(=O)Nc2ncc3c(n2)CC(c2ccco2)CC3=O)cc1 (stereo not given),inactive
8,Cc1cc(C(=O)NC2CCCCC2)c(C)n1-c1ccc(F)cc1,active: 5.8 µM
9,CCCCc1nc(SCC(=O)N2CCCC2)c2c(=O)n(C)c(=O)n(C)c2n1,"inconclusive: 29.1 µM [activator, single point]"
10,CN1CCCC(OC(=O)c2ccccc2Br)C1 (stereo not given),"inconclusive: 16.4 µM [activator, partial curve, poor fit]"
11,CCCc1ccc2oc(C(=O)N3CCC(COC)C3)c(C)c2c1 (stereo not given),"inconclusive: 18.3 µM [activator, partial curve]"
12,Cc1ccc(NC(=O)c2nsc(Cl)c2Cl)cc1,"inconclusive: 4.11 µM [activator, full curve]"
13,O=C1S/C(=C\C=C\c2ccco2)C(=O)N1c1ccc(O)cc1,"inconclusive: 16.4 µM [activator, partial curve]"
14,CCOC(=O)c1c(C)oc2ccc(OCc3cc(C(=O)OC)oc3C)cc12,inactive
15,CSc1ncccc1C(=O)OCC(=O)c1ccc(C)s1,inactive
16,CCOC(=O)[C@H]1[C@H]2COc3ccc(Br)cc3[C@@H]2N2C(=O)c3ccc(Cl)cc3NC(=O)[C@@]12C,inactive
17,CCN=C1S/C(=C\c2sccc2C)C(=O)N1CC,"inconclusive: 23.1 µM [activator, partial curve, poor fit]"
18,Cc1noc(C)c1NC(=O)N(C)C[C@@H]1Oc2c(NC(=O)c3ccncc3)cccc2C(=O)N([C@H](C)CO)C[C@@H]1C,inactive
19,Cc1cccc(-c2noc(CCC(=O)Nc3ccc(C(N)=O)cc3)n2)c1,"inconclusive: 23.1 µM [activator, partial curve, poor fit]"
20,CCN1C(=O)c2cccc3c(S(=O)(=O)N4CCC(C)CC4)ccc1c23,"inconclusive: 13 µM [activator, partial curve]"
21,CN(C)c1ccc(C(=O)OCc2ccccc2)cc1,active: 23.1 µM
22,CCn1c(NCc2ccc(N(C)C)cc2)nc2ccccc21,"inconclusive: 29.1 µM [activator, single point]"
